42 compounds from ChEMBL document CHEMBL4888484, “Replenishing the malaria drug discovery pipeline: Screening and hit evaluation of the MMV Hit Generation Library 1 (HGL1) against asexual blood stage Plasmodium falciparum ,using a nano luciferase reporter read-out” (2022) can be followed below.

Structures are written as SMILES. Out of some 150,000 compounds screened, about 540 (0.36%) showed an effect of 50% or more. The list shows a part of the results.

The experiment relates to Plasmodium falciparum. Kind of experiment: Primary screen in NF54 nanoGlo assay, in single point, at 2uM, 72h; a lower Z score goes with more inhibition. The format is functional, Erythrocyte. The settings on record: timepoint 72 hour.
`O=C1CNCCN1[C@H]1CCCN(c2ccnc3ccncc23)C1`: the “% Inhibition” value is -8% and the Z score is 0.97.
On to `CC(C)CN(CC(C)C)C(=O)c1ccc(C(=O)N(CC(C)C)CC(C)C)nc1`, for which the “% Inhibition” value is reported as -38% and the Z score worked out at 4.52.
Consider `C=CCc1ccccc1OCCN(C)Cc1nc(C)ccc1O`, for which the “% Inhibition” value was -5% and the Z score is 0.89.
The like results for `CCCCOC(=O)N1CCC[C@@]2(CCC(=O)N(CCc3ccccc3)C2)C1` were, in that order, -1% and 0.16.
Take `O[C@@H]1COCCN(CCOc2ccc(F)cc2)C1`: the “% Inhibition” value is listed as -12% and the Z score was found to be 1.5.
As for `CCOc1cccc(C(=O)N2CCN(CC3CC3)[C@@H]3CS(=O)(=O)C[C@@H]32)c1`, the “% Inhibition” value is reported as -14% and the Z score amounted to 1.4.
As to `CC1(C)Cc2[nH]ncc2CN(C(=O)Nc2ccccc2N2CCCCC2=O)C1`, the “% Inhibition” value is -10% and the Z score was 1.34.
Regarding `CC(C)(C)c1nnnn1C1CCCCC1O` (centres undefined), the “% Inhibition” value was determined as 0% and the Z score turned out to be 0.06.
For the compound `CCOc1ccc(C(=O)N2CCn3cncc3C2)cc1`, the “% Inhibition” value is given as -6% and the Z score came out at 1.19.
Take `CN(C)CC(=O)Nc1cnccc1OC(C)(C)C`: the “% Inhibition” value is given as -2% and the Z score was determined as 0.42.
For `CCc1ccsc1C(=O)N(CC#N)CC#N`, in that order: 8% and -1.34.
`O=c1c2ccccc2nc(-c2ccc3ccccc3c2)n1Cc1ccc2c(c1)OCO2`: the “% Inhibition” value was -9% and the Z score was 1.69.
For `CC(C)c1ccc(C(=O)N[C@H]2CCC(=O)NC2)cc1Cl`, the “% Inhibition” value is reported as -5% and the Z score is reported as 0.53.
For `O=C(Cn1[nH]c2ccccc2c1=O)NC(Cc1ccccc1)[C@H]1C[C@H](O)C1` (some centres undefined), in that order: -19% and 1.69.
Regarding `O=C1CNC(=O)N1CC(=O)N1CC[C@@](O)(c2ccccc2)[C@H]2CCCC[C@@H]21`, the “% Inhibition” value is on record as -4% and the Z score is recorded as 0.72.
The like results for `CCN1CC(C(=O)N2CCNC(=O)CC2c2ccccc2)CC1=O` (centres undefined) were, in that order, 0% and 0.02.
For `O=C1c2cccnc2CN1CCN1CCc2ccccc21`, the “% Inhibition” value is listed as -20% and the Z score was found to be 2.31.
For the compound `CCN(CC)C(=O)N1CCC([C@H](O)C(F)(F)F)CC1`, the “% Inhibition” value is recorded as -14% and the Z score is 1.69.
As for `COCc1cc(=O)n(CC(=O)Nc2ccccc2Cl)c(N2CCCC2)n1`, the “% Inhibition” value is given as -5% and the Z score is 0.71.
For `O=C(C1CC1c1ccccc1)n1nnc2ccccc21` (centres undefined), in that order: -9% and 1.35.
As to `NC(=O)Cn1cc(C(=O)Nc2ccc(Cc3nnc4n3CCC4)cc2)nn1`, the “% Inhibition” value is listed as -3% and the Z score was determined as 0.44.
For `CC1CCN(c2nc(-c3c[nH]c4ccccc34)cs2)CC1`, in that order: -18% and 1.48.
As for `CC1=C[C@@H](CNS(C)(=O)=O)[C@H](C(C)C)C[C@H]1Cc1nnc(-c2ccncc2)o1`, the “% Inhibition” value was -7% and the Z score worked out at 1.1.
As to `Cc1nn(C)c(C)c1CCC(=O)N(Cc1ccc(OCc2ccccc2)cc1)c1ccccc1`, the “% Inhibition” value is given as -7% and the Z score was 1.35.
Take `C[C@H](Oc1cnc2ccccc2c1)C(=O)NCc1cccnc1N1CCCC1`: the “% Inhibition” value is -3% and the Z score worked out at 0.38.
For `C[C@H]1CN(C(=O)c2cc(Cl)cn2C)C[C@@H]1C(=O)OC(C)(C)C`, the “% Inhibition” value was -1% and the Z score is on record as 0.18.
With `COc1ccc(CNC(=O)[C@@H]2NCCc3[nH]cnc32)c(F)c1F`, the “% Inhibition” value is listed as -3% and the Z score came to 0.54.
For `CC(C)CCNC(=O)CC1(N2Cc3ccccc3C2=O)CCN(Cc2ccccc2)CC1`, the “% Inhibition” value is -6% and the Z score amounted to 0.88.
For `N#Cc1cnccc1NCC1CCC2(CC1)OCCO2`, in that order: -38% and 4.4.
For `O=C(NCC1(O)CCCC1)c1cccc(Br)c1`, the “% Inhibition” value was -11% and the Z score amounted to 1.91.
Take `COC[C@H]1CCN1C(=O)c1nc2n(n1)CCCN2`: the “% Inhibition” value is reported as -12% and the Z score was 1.13.
The like results for `CC(C)(C)c1cccc(OC/C=C/Cn2ccnc2)c1` were, in that order, -9% and 0.99.
Turning to `CCOc1cccc(CNC(=O)c2c(O)c3cccnc3[nH]c2=O)c1`, the “% Inhibition” value is given as -7% and the Z score is listed as 0.93.
Take `CC(C)C[C@H](C)OC(=O)N1CC(c2ncc(C3CC3)cn2)C1`: the “% Inhibition” value is listed as -8% and the Z score is 0.7.
Turning to `O=C(Nc1ccccc1)c1cccc(-c2nc(-c3ccc(F)cc3)no2)c1`, the “% Inhibition” value was -6% and the Z score stood at 1.11.
With `Cc1nc(-c2cnn(C)c2)sc1C(=O)O[C@@H](C)C1CC1`, the “% Inhibition” value is listed as 8% and the Z score is listed as -1.44.
With `N#CC1(CNC(=O)CNC(=O)C2C3CCCCC32)CC1` (centres undefined), the “% Inhibition” value stood at 36% and the Z score is given as -5.15.
For the compound `C=CCN=C(NCc1cccnc1)NCc1cccc(OC)c1`, the “% Inhibition” value is 0% and the Z score is reported as 0.04.
As for `C[C@H]1CN(c2nc3ccccc3c3nnc(C4CCCCC4)n23)CCN1C(=O)c1ccccc1`, the “% Inhibition” value was determined as 3% and the Z score is -0.51.
With `Cc1sc2ncnc(N3C[C@H](OC(C)C)[C@@H](O)C3)c2c1C`, the “% Inhibition” value is recorded as -16% and the Z score worked out at 1.99.
`O=C1NC(=O)C(C2CCCN(C(=O)C3CC3c3cccc(F)c3)C2)N1` (centres undefined): the “% Inhibition” value is on record as -13% and the Z score amounted to 1.14.
On to `O=C(O)CN(Cc1ccccc1)C(=O)[C@@H]1Cc2ccccc21`, for which the “% Inhibition” value was -4% and the Z score was 0.43.

The term % Inhibition denotes the change of the read-out against control, counted positive when it falls.
